Hit rate of the full screen: of about 310,000 compounds, about 14,000 (4.5%) showed an effect of 50% or more. Effects have a minus sign here. The list shows a part of the results.
biological target: human ether-à-go-go-related gene (hERG) potassium channel (human, UniProt Q12809); test: primary screen, population patch clamp on CHO cells stably expressing hERG
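Further: peak tail current of the secondary pulse compared with the same well before compound.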

human ether-à-go-go-related gene (hERG) potassium channel, sequence (Q12809 whole entry, looked up): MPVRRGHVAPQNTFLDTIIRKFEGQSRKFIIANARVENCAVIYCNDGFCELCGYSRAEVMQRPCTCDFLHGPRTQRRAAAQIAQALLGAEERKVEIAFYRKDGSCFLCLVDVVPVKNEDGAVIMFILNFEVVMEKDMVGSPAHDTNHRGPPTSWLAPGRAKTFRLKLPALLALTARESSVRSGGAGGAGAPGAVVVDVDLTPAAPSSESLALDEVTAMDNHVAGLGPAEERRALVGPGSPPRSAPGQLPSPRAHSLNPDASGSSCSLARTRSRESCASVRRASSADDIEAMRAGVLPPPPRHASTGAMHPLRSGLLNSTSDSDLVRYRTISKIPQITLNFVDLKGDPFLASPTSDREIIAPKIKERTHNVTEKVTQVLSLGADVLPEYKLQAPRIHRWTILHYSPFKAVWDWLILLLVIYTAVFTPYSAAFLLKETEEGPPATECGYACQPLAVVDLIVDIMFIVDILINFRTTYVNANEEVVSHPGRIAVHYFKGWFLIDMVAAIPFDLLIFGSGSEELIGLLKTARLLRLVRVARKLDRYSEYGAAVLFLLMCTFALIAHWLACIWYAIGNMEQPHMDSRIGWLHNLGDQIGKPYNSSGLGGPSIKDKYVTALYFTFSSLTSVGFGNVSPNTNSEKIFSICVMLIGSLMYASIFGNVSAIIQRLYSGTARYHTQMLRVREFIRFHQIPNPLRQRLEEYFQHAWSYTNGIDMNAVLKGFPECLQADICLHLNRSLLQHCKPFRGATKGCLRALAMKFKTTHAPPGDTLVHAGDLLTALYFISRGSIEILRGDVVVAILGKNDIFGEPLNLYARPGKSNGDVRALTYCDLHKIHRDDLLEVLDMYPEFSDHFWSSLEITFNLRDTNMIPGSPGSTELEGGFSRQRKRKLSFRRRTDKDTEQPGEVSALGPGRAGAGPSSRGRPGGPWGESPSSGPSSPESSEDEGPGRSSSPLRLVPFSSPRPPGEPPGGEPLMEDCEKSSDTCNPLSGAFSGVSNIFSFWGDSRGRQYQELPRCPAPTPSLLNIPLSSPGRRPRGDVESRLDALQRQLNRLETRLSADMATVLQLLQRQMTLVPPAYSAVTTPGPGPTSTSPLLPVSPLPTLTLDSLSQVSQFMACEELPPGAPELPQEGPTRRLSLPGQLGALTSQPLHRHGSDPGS

Row | Compound | hERG current change (%, negative = inhibition) at 10uM [%]
1 | Cc1ccc(C(C)C)cc1S(=O)(=O)NCc1ccccn1 | 2.86
2 | C=CCSC1=N/C(=C\c2sccc2C)C(=O)S1 | -1.99
3 | Cc1ccc(-c2c(C(=O)N(C)Cc3ccccc3)oc(=O)c3ccccc23)cc1 | -52.5
4 | CCCCN(CC)CCCNC(=O)c1cn(CC(C)C)c(=O)c2c1c1ccccc1n2C | -34.5
5 | Cc1nnc(SCC(=O)c2ccc(Cl)cc2)n(N)c1=O | 1.4
6 | CCOc1cc2c(cc1OCC)-n1cccc1C(c1cc(OC)ccc1F)NC2.Cl (stereo not shown) | -0.962
7 | O=C(Cc1ccccc1)N1CCN(c2ncccn2)CC1 | 1.36
8 | CCCCN(C(=O)C1=COCCO1)c1c(N)n(Cc2ccccc2)c(=O)[nH]c1=O | 8.72
9 | Cc1nc2nc[nH]n2c(=O)c1NS(C)(=O)=O | 4.48
10 | Cn1cnnc1SCC(=O)N1N=C2/C(=C/c3ccco3)CCCC2C1c1ccco1 (stereo not shown) | -25.6
11 | Cc1ccc(C(=O)OCc2ccc3c(c2)OCO3)cc1S(=O)(=O)N1CCCCC1 | 5.84
12 | CC(=O)Nc1ccc(NC(=O)c2ccc(COc3ccccc3)cc2)cc1 | -2.88
13 | CSc1ncc(Cl)c(C(=O)Nc2cccc3ccccc23)n1 | 5.27
14 | COC(=O)c1ccc(CNCC(O)COc2ccc(-c3ccccc3)cc2)cc1 (stereo not shown) | 13.1
15 | O=C(COc1ccc([N+](=O)[O-])cc1Cl)NCC1CCCO1 (stereo not shown) | -14.9
16 | CC(NC=C1C(=O)OC(C)(C)OC1=O)C(=O)O (stereo not shown) | 12.1
17 | COc1cc(C(=O)Nc2c(C(=O)O)[nH]c3ccccc23)cc(OC)c1OC | 16.2
18 | COc1ccc(-c2cc(C(N)=O)nc(N3CCCCCC3)n2)cc1 | 14.7
19 | CCNc1nc(C)c2cc(Br)c(=O)n(CC)c2n1 | 17.1
20 | CN1C(=O)C2(c3ccccc31)C1CCCC=C1C(C#N)=C(N)C2(C#N)C#N (stereo not shown) | 5.52
21 | Cn1ncc(Cl)c1C(=O)NCc1ccc2c(c1)OCO2 | 6.44
22 | CCOc1ccc(C(=O)N/N=C/c2cc(Cl)ccc2[N+](=O)[O-])cc1 | -11.6

Row | Compound | hERG current change (%, negative = inhibition) at 10uM [%]
23 | O=C(Cn1c(=O)c2cccn2c2ccccc21)NCCCN1CCCCC1 | 3.5
24 | Cc1ccc(NC(=S)N2CCC(NC(=O)c3ccc(F)cc3)CC2)cc1C | 9.31
25 | O=C(CCn1c(=S)[nH]c2ccccc2c1=O)N1CCOCC1 | -5.37
26 | CCN(CC(=O)Nc1c(F)cccc1F)C(=O)CN1C(=O)NC2(CCCC2)C1=O | 22.5
27 | CCN1CCN(c2ncnc3ccc(Br)cc23)CC1 | -7.57
28 | N#CCCN/N=C(\Cc1nc2ccccc2[nH]1)c1ccccc1 | 8.11
29 | CCOC(=O)N1CCC(Nc2c(NCCCN(CC)Cc3ccccc3)c(=O)c2=O)CC1 | 6.06
30 | CCOc1ccccc1C(=O)NN1C(=O)C2CCCCC2C1=O (stereo not shown) | 13.3
31 | COc1ccc(/C=C/C(=O)NC(=S)Nc2ccc(C(=O)O)cc2)cc1 | 18.9
32 | O=C(c1cc(=O)[nH]c2ccccc12)N1CCc2ccccc2C1 | 11
33 | CC(C)=CCc1c(O)ccc2c1OC(c1ccc(O)c(O)c1)CC2=O (stereo not shown) | 9.78
34 | COc1ccc(CCNC(=O)COC(=O)c2cnccn2)cc1 | 2.09
35 | CCN1CCN(CCCNC(=O)CCc2nc(-c3ccc(OC)cc3)no2)CC1 | -2.35
36 | Cc1ccccc1CS(=O)(=O)CCC(=O)NCc1ccc(F)cc1Cl | -1.18
37 | CCOC(=O)N1CCC(NC(=O)c2cc3sccc3n2CC)CC1 | 2.28
38 | O=C(COC(=O)CCNS(=O)(=O)c1cccc(C(F)(F)F)c1)NC(=O)NC1CCCCC1 | -14.4
39 | CCOC(C(=O)OCCCN(CC)CC)(c1ccccc1)c1ccccc1.Cl | -11.5
40 | Cc1csc(Nc2ccccc2)[n+]1C.[Br-] | 6.99
41 | O=C(CSCc1ccccc1)NC1CCSC1=O (stereo not shown) | -7.15
42 | CCOC(=O)c1c(C)[nH]c(C)c1S(=O)(=O)NCC1CCN(Cc2ccccc2F)CC1 | -4.61
43 | CCOC(=O)N1CCC(NC(=O)CCc2nc(-c3ccccc3F)no2)CC1 | 13

Reference: publication PMC4336329 (PLoS ONE, 2015)
